Assay results from PubChem BioAssay (NCI).
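Where inhibition never reached the appropriate level, the endpoint shown equals the highest concentration tested. Otherwise, values were interpolated linearly from a five-concentration, 48-hour dose response in 96-well plates. GI50: concentration for 50% inhibition of growth.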 The source holds more than one record for some entries. They are shown here; other results are not. There may be further records. Records of one sample usually come from different ranges of test concentrations, not given here; some values may only mark the edge of a range.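 At the TGI there is no net growth.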

Columns and labels:
Assay in all cases: NCI anticancer screen, dose series, 48 h
EKVX NSCLC = system: EKVX NSCLC
HOP-62 NSCLC = system: HOP-62 NSCLC
A549 NSCLC = system: A549 NSCLC
786-0 renal = system: 786-0 renal
MOLT-4 leukemia = system: MOLT-4 leukemia
HS 578T breast = system: HS 578T breast
OVCAR-5 ovarian = system: OVCAR-5 ovarian
OVCAR-8 ovarian = system: OVCAR-8 ovarian
HCT-15 colon = system: HCT-15 colon
SNB-75 CNS = system: SNB-75 CNS
HOP-92 NSCLC = system: HOP-92 NSCLC
NCI-H226 lung = system: NCI-H226 lung
OVCAR-4 ovarian = system: OVCAR-4 ovarian
HT29 colon = system: HT29 colon
U251 CNS = system: U251 CNS
BT-549 breast = system: BT-549 breast
HCC-2998 colon = system: HCC-2998 colon
NCI-H23 lung = system: NCI-H23 lung
ACHN renal = system: ACHN renal
A498 renal = system: A498 renal
SF-268 CNS = system: SF-268 CNS
SN12C renal = system: SN12C renal
M19-MEL melanoma = system: M19-MEL melanoma
LOX IMVI melanoma = system: LOX IMVI melanoma
NCI-H460 lung = system: NCI-H460 lung
SK-OV-3 ovarian = system: SK-OV-3 ovarian
SF-295 CNS = system: SF-295 CNS

COC(=O)[C@@H](C)C[C@H](Cc1ccccc1)NC(=O)c1cccc([C@@H](C[C@H](C(C)C)N(C)C(=O)[C@@H](NC(=O)[C@H]2CCCCN2C)C2CC2)OC(C)=O)n1
GI50 (EKVX NSCLC): 3.33 nM and 205 nM
TGI (HOP-62 NSCLC): 4.77 µM and > 100 µM
GI50 (A549 NSCLC): 3.33 nM and 102 nM
GI50 (786-0 renal): 3.33 nM and 55.8 nM
GI50 (MOLT-4 leukemia): 3.33 nM and 36.7 nM
GI50 (HS 578T breast): 3.33 nM and 66.6 nM
GI50 (OVCAR-5 ovarian): 3.33 nM and 1.32 µM
GI50 (OVCAR-8 ovarian): 3.33 nM and 35.7 nM
GI50 (HCT-15 colon): 3.33 nM and 168 nM
GI50 (SNB-75 CNS): 1.56 µM and 21.5 nM
GI50 (HOP-92 NSCLC): 1.91 nM, 3.33 nM, 842 nM
GI50 (NCI-H226 lung): 3.52 nM and 66.7 µM
GI50 (OVCAR-4 ovarian): 3.33 nM and 1.41 µM
TGI (HT29 colon): 485 nM and > 100 µM
GI50 (U251 CNS): 3.33 nM and 40.9 nM
TGI (BT-549 breast): 4.69 nM and 247 nM
GI50 (HCC-2998 colon): 3.33 nM and 518 nM
GI50 (NCI-H23 lung): 3.33 nM and 51.8 nM
GI50 (ACHN renal): 3.33 nM and 47.3 nM
GI50 (A498 renal): 3.33 nM and 50.5 nM
TGI (A498 renal): 3.6 nM and > 100 µM
GI50 (SF-268 CNS): 3.33 nM and 81.3 nM
GI50 (SN12C renal): 3.33 nM and 36 nM

COc1cc(CN[C@H]2CCc3cc(OC)c(OC)c(OC)c3-c3ccc(SC)c(=O)cc32)cc(OC)c1
TGI (M19-MEL melanoma): 92 nM and > 100 µM
TGI (LOX IMVI melanoma): 610 nM and 19.3 µM
TGI (NCI-H460 lung): 246 nM and 14.2 µM
TGI (SK-OV-3 ovarian): 75.9 nM and 78.7 µM
TGI (SF-295 CNS): 273 nM and > 100 µM
TGI (SF-268 CNS): 703 nM and 24.5 µM
